Reference: the supplement of paper PMC4604168 (melanoma cell lines)
This is one part of the list. Many values rest on one well or one pass, so single values are uncertain.

Assays:
Assay in all cases: cell count relative to DMSO control; melanoma cells; higher = more viable cells
Conditions in all cases: library dose: standard library concentration; 72 h
[1] = test system: G361
[2] = test system: IPC-298
[3] = test system: IST-MEL1
[4] = test system: LB2518-MEL
[5] = test system: LOXIMVI
[6] = test system: MEL-HO
[7] = test system: MZ2-MEL
[8] = test system: MeWo
[9] = test system: RPMI7951
[10] = test system: RVH-421
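Also: cells treated in 1,536-well plates, then fixed and DAPI-stained, with nuclei counted from automated high-throughput microscope images.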

| SMILES | cell count [1] [%] | cell count [2] [%] | cell count [3] [%] | cell count [4] [%] | cell count [5] [%] | cell count [6] [%] | cell count [7] [%] | cell count [8] [%] | cell count [9] [%] | cell count [10] [%] |
| --- | --- | --- | --- | --- | --- | --- | --- | --- | --- | --- |
| Cc1cn(-c2cc(NC(=O)c3ccc(C)c(Nc4nccc(-c5cccnc5)n4)c3)cc(C(F)(F)F)c2)cn1 [nilotinib] + Cn1c(Nc2ccc(C(F)(F)F)cc2)nc2cc(Oc3ccnc(-c4ncc(C(F)(F)F)[nH]4)c3)ccc21 [CHIR265] (first compound 1 µM, partner dose 0.4 µM) | 20.4 | 59.9 | 81 | 33.8 | 89.9 | 71.8 | 82.2 | 74.1 | 42.1 | 42.4 |
| Cc1cc(Nc2cc(N3CCN(C)CC3)nc(/C=C/c3ccccc3)n2)n[nH]1 + O=C(CCCCCCC(=O)Nc1ccccc1)NO [vorinostat] (first compound 0.2 µM, partner dose 0.4 µM) | 60.9 | 84.4 | 73.4 | 55.9 | 62.4 | 82.5 | 98.7 | 72 | 51.2 | 73.4 |
| COc1ccc(C2=N[C@@H](c3ccc(Cl)cc3)[C@@H](c3ccc(Cl)cc3)N2C(=O)N2CCNC(=O)C2)c(OC(C)C)c1 [Nutlin-3] + O=C(O)[C@@H]1[O][Sb](=[O])([O][Sb]2(=[O])[O][C@H]([C@H](O)CO)[C@H](O)[C@H](C(=O)O)[O]2)[O][C@H]([C@H](O)CO)[C@@H]1O [stibogluconate] (first compound 0.5 µM, partner dose 10 µM) | 68.8 | 77.9 | 119 | 64.9 | 82.4 | 84.3 | 84.4 | 85.5 | 106 | 32.9 |
| CC(C)C[C@H](NC(=O)[C@H](Cc1ccccc1)NC(=O)c1cnccn1)B(O)O [Bortezomib] + COc1ccc2c(c1)CCC1C2CCC2(C)C(NCCCCCCN3C(=O)C=CC3=O)CCC12 [U73122] (first compound 0.005 µM, partner dose 2 µM) | 0.593 | 36.7 | 33.3 | 13.8 | 30 | 58.8 | 29.7 | 8.15 | 7.68 | 18.9 |
| COc1ccc(C2=N[C@@H](c3ccc(Cl)cc3)[C@@H](c3ccc(Cl)cc3)N2C(=O)N2CCNC(=O)C2)c(OC(C)C)c1 [Nutlin-3] + CC(=O)c1c(C)c2cnc(Nc3ccc(N4CCNCC4)cn3)nc2n(C2CCCC2)c1=O [palbociclib] (first compound 0.5 µM, partner dose 0.2 µM) | 60.3 | 65.9 | 68.4 | 57.9 | 54.2 | 72.5 | 46.8 | 51.2 | 52.3 | 46.5 |
| COc1ccc(C2=N[C@@H](c3ccc(Cl)cc3)[C@@H](c3ccc(Cl)cc3)N2C(=O)N2CCNC(=O)C2)c(OC(C)C)c1 [Nutlin-3] + Cc1nc(Nc2ncc(C(=O)Nc3c(C)cccc3Cl)s2)cc(N2CCN(CCO)CC2)n1 [dasatanib] (first compound 0.5 µM, partner dose 0.02 µM) | 68.3 | 76 | 76.8 | 69.1 | 18.6 | 67.2 | 44.4 | 82.3 | 45.9 | 43.1 |
| Cn1c(=O)n(-c2ccc(C(C)(C)C#N)cc2)c2c3cc(-c4cnc5ccccc5c4)ccc3ncc21 + CO[C@H]1C[C@@H]2CC[C@@H](C)[C@@](O)(O2)C(=O)C(=O)N2CCCC[C@H]2C(=O)O[C@H]([C@H](C)C[C@@H]2CC[C@@H](OCCO)[C@H](OC)C2)CC(=O)[C@H](C)/C=C(\C)[C@@H](O)[C@@H](OC)C(=O)[C@H](C)C[C@H](C)/C=C/C=C/C=C/1C [everolimus] (first compound 0.02 µM, partner dose 0.1 µM) | 23.2 | 40.6 | 49.2 | 40.6 | 69.9 | 50.9 | 26.2 | 36 | 58.8 | 59.1 |
| COc1ccc(C2=N[C@@H](c3ccc(Cl)cc3)[C@@H](c3ccc(Cl)cc3)N2C(=O)N2CCNC(=O)C2)c(OC(C)C)c1 [Nutlin-3] + Oc1cc(-c2nc(-c3ccccc3)[nH]c2-c2ccncc2)ccc1Cl [L779450] (first compound 0.5 µM, partner dose 1 µM) | 43 | 78.2 | 83.6 | 74.1 | 96.8 | 91.9 | 84.7 | 100 | 98.6 | 64.8 |
| Cc1cc(Nc2cc(N3CCN(C)CC3)nc(/C=C/c3ccccc3)n2)n[nH]1 + N#Cc1c(O)c2c(-c3ccc(-c4ccccc4O)cc3)csc2[nH]c1=O [A769662] (first compound 0.2 µM, partner dose 10 µM) | 97.8 | 110 | 1.94 | 95.5 | 107 | 88.9 | 113 | 75.9 | 80.5 | 108 |
| Cn1c(=O)n(-c2ccc(C(C)(C)C#N)cc2)c2c3cc(-c4cnc5ccccc5c4)ccc3ncc21 + CC1(C)NC(=O)N(c2ccc([N+](=O)[O-])c(C(F)(F)F)c2)C1=O [nilutamide] (first compound 0.02 µM, partner dose 5 µM) | 42.8 | 77 | 67.1 | 64.6 | 54 | 70.3 | 71.7 | 46.8 | 52 | 68 |
| Cc1cc(Nc2cc(N3CCN(C)CC3)nc(/C=C/c3ccccc3)n2)n[nH]1 + CN(C)S(=O)(=O)c1ccc2c(c1)/C(=C/c1cc3c([nH]1)CCCC3)C(=O)N2 [SU6656] (first compound 0.2 µM, partner dose 2 µM) | 62 | 62 | 83 | 53.6 | 82.3 | 84.3 | 96.5 | 87.4 | 46.4 | 63.4 |
| Cc1cn(-c2cc(NC(=O)c3ccc(C)c(Nc4nccc(-c5cccnc5)n4)c3)cc(C(F)(F)F)c2)cn1 [nilotinib] + Nc1cccc2c1CN(C1CCC(=O)NC1=O)C2=O [lenalidomide] (first compound 1 µM, partner dose 5 µM) | 80.6 | 104 | 95 | 101 | 130 | 78.5 | 89.4 | 81.4 | 89.8 | 59.5 |
| COc1ccc(C2=N[C@@H](c3ccc(Cl)cc3)[C@@H](c3ccc(Cl)cc3)N2C(=O)N2CCNC(=O)C2)c(OC(C)C)c1 [Nutlin-3] + Cn1nnc2c(C(N)=O)ncn2c1=O [temozolomide] (first compound 0.5 µM, partner dose 10 µM) | 72.8 | 102 | 81 | 59.9 | 52.9 | 91 | 84.5 | 94.2 | 78.1 | 67.1 |
| Cn1c(=O)n(-c2ccc(C(C)(C)C#N)cc2)c2c3cc(-c4cnc5ccccc5c4)ccc3ncc21 + COc1ccc(Cl)c(Nc2nc3ccccc3nc2NS(=O)(=O)c2cccc(NC(=O)C(C)(C)N)c2)c1 [XL147] (first compound 0.02 µM, partner dose 4 µM) | 58.5 | 65.4 | 64.2 | 92.8 | 65.1 | 54.7 | 63 | 72.5 | 72.4 | 83.4 |
| COc1ccc(C2=N[C@@H](c3ccc(Cl)cc3)[C@@H](c3ccc(Cl)cc3)N2C(=O)N2CCNC(=O)C2)c(OC(C)C)c1 [Nutlin-3] + OCc1c[nH]c2ccccc12 [Indole-3-carbinol] (first compound 0.5 µM, partner dose 4 µM) | 81.5 | 104 | 97.7 | 96.5 | 58.7 | 96.1 | 112 | 135 | 105 | 63.1 |
| Cc1cc(Nc2cc(N3CCN(C)CC3)nc(/C=C/c3ccccc3)n2)n[nH]1 + COc1cc(N2CCC(N3CCN(C)CC3)CC2)ccc1Nc1ncc(Cl)c(Nc2ccccc2S(=O)(=O)C(C)C)n1 [NVP-TAE684] (first compound 0.2 µM, partner dose 0.4 µM) | 75.4 | 85.1 | 85.5 | 84.4 | 86.7 | 74.4 | 80.5 | 70.8 | 53.8 | 81.9 |
| Cc1cc(Nc2cc(N3CCN(C)CC3)nc(/C=C/c3ccccc3)n2)n[nH]1 + CC(C)CCN1c2nc(Nc3cc(F)c(O)c(F)c3)ncc2N(C)C(=O)C1C [BID1870] (first compound 0.2 µM, partner dose 1 µM) | 70.9 | 77.7 | 69.2 | 82.7 | 57.9 | 74.5 | 90.3 | 70.6 | 68.9 | 85.9 |
| COc1ccc(C2=N[C@@H](c3ccc(Cl)cc3)[C@@H](c3ccc(Cl)cc3)N2C(=O)N2CCNC(=O)C2)c(OC(C)C)c1 [Nutlin-3] + OCCn1cc(-c2cnc3nnn(Cc4ccc5ncccc5c4)c3n2)cn1 [PF04217903] (first compound 0.5 µM, partner dose 5 µM) | 78 | 111 | 112 | 69.1 | 71.4 | 86.1 | 131 | 110 | 91.1 | 70.5 |
| Cn1c(=O)n(-c2ccc(C(C)(C)C#N)cc2)c2c3cc(-c4cnc5ccccc5c4)ccc3ncc21 + C#Cc1cccc(Nc2ncnc3cc(OCCOC)c(OCCOC)cc23)c1 [erlotinib] (first compound 0.02 µM, partner dose 4 µM) | 48.9 | 51.6 | 76.1 | 69.6 | 71.5 | 56.4 | 63 | 58.4 | 51.8 | 72.4 |
| Cc1cc(Nc2cc(N3CCN(C)CC3)nc(/C=C/c3ccccc3)n2)n[nH]1 + NC(=O)Nc1cc(-c2cccc(F)c2)sc1C(=O)N[C@H]1CCCNC1 [AZD7762] (first compound 0.2 µM, partner dose 0.1 µM) | 75.4 | 89.4 | 93.2 | 69.6 | 68.2 | 85.3 | 112 | 65.8 | 31.9 | 101 |
| COc1ccc(C2=N[C@@H](c3ccc(Cl)cc3)[C@@H](c3ccc(Cl)cc3)N2C(=O)N2CCNC(=O)C2)c(OC(C)C)c1 [Nutlin-3] + CNC(=O)c1cc(Oc2ccc(NC(=O)Nc3ccc(Cl)c(C(F)(F)F)c3)cc2)ccn1 [sorafenib] (first compound 0.5 µM, partner dose 2 µM) | 70.6 | 83.3 | 100 | 67.7 | 111 | 102 | 103 | 109 | 94.1 | 66.6 |
